From PMC4336329 (PLoS ONE, 2015)
Screen size: about 310,000 compounds; about 14,000 (4.5%) showed an effect of 50% or more. Effects have a minus sign here. The list shows a part of the results.

molecular target: human ether-à-go-go-related gene (hERG) potassium channel (human, UniProt Q12809); assay: primary screen, population patch clamp on CHO cells stably expressing hERG
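Note: peak tail current of the secondary pulse compared with the same well before compound.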

Sequence of human ether-à-go-go-related gene (hERG) potassium channel (Q12809 whole entry, looked up): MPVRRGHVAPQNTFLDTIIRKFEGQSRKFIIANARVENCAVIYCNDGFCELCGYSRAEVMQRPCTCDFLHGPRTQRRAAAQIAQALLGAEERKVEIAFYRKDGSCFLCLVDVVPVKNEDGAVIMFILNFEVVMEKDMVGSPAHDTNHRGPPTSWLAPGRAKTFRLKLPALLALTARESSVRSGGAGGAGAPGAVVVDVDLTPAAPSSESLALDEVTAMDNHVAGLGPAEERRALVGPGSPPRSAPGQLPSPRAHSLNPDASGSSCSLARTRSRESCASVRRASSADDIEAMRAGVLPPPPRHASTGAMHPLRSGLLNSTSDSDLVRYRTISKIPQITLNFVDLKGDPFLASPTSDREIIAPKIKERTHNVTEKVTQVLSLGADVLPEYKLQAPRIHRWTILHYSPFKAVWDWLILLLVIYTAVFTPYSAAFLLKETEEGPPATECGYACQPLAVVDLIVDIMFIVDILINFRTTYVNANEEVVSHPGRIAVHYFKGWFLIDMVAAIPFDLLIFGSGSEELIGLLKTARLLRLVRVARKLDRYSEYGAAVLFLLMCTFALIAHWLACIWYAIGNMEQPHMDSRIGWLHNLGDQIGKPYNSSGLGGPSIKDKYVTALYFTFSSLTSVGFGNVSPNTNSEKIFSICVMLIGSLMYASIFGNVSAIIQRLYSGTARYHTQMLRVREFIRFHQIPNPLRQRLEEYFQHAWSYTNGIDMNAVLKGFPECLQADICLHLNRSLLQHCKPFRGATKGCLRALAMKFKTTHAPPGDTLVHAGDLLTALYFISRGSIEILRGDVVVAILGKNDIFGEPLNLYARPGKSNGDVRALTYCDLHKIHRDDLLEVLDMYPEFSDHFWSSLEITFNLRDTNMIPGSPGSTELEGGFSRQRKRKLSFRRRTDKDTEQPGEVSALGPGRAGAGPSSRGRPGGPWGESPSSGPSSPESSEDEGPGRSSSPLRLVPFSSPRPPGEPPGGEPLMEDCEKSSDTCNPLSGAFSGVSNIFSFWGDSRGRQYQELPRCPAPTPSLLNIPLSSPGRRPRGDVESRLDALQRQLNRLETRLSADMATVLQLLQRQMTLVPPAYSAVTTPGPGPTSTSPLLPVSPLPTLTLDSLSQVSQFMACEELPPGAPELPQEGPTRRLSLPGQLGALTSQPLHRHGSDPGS

Compound	hERG current change (%, negative = inhibition) at 10uM
CCc1cc(C(=O)N(CC(C)C)c2c(N)n(Cc3ccccc3)c(=O)[nH]c2=O)sc1C	-19.7%
COc1ccccc1NC(=O)CSc1ccc(-c2ccccn2)nn1	-8.04%
Cn1c(=O)c2c(nc(Cc3ccccc3)n2C)n(C)c1=O	15.7%
CCC(=O)c1ccc(OCC(O)Cn2nnc3ccccc32)cc1 (centres unmarked)	-20.1%
COc1ccccc1NC(=O)c1nnn(CC(=O)Nc2ccccc2)c1N	7.36%
Cc1cccc(NC(=O)CCNC(=O)c2ccccc2)c1	19.5%
CCCCNC(=S)NCC(c1ccccc1)c1c[nH]c2ccccc12 (centres unmarked)	14.7%
CCn1c(SCC(=O)NCc2ccc3c(c2)OCO3)nnc1-c1cccs1	-23.1%
CC(C)COc1ccc(CN=C(N)N=C(N)N)cc1Cl.Cl	-14.5%
Nn1cc(-c2ccccc2)nc1SCC(=O)N1CCN(S(=O)(=O)c2ccccc2)CC1	-37.2%
O=C1[C@@H]2Cc3c([nH]c4ccccc34)C(c3ccccc3)N2C(=O)CN1CCO (some centres unmarked)	-5.39%
COc1cccc(COC(=O)C2CCN(S(=O)(=O)c3cccs3)CC2)c1OC	-14.5%
CCN(CC)S(=O)(=O)c1ccc(C(=O)Nc2nnc(COC)o2)cc1	1.07%
COc1ccc(-c2ccc(CCC(=O)O)n2NC(=O)c2ccc(C(C)(C)C)cc2)cc1	22.9%
O=S(=O)(NCCSc1ccccn1)c1ccc(Cl)cc1	-21.2%
CC1(CC(=O)N/N=C/c2cc3c(cc2Br)OCO3)OCCO1	15.5%
O=C(CCNC(=O)c1ccc(Cl)cc1)Nc1ccc(S(=O)(=O)N2CCCCC2)cc1	-15.8%
CCN(CC(=O)NCc1cccs1)C(=O)/C=C/c1cc(OC)ccc1OC	-2.74%
Cc1ccc(C)c(OCCC(=O)OCC(=O)NC(=O)NC2CCCC2)c1	-9.77%
CCCCOP(=O)(OCCCC)C(Nc1ccccc1)c1ccc2c(c1)OCO2 (centres unmarked)	-23.5%
COC(=O)CN(n1cnnc1)S(=O)(=O)c1ccccc1	12.4%
Cc1ccc(NC(=S)NNc2ncc(C(F)(F)F)cc2Cl)c(C)c1	5.17%

Compound	hERG current change (%, negative = inhibition) at 10uM
O=C(Nc1ccc(Cl)cc1)C1CCCN(c2cnccn2)C1 (centres unmarked)	-13.4%
Cc1ccnc(NC2c3ccccc3C(=O)N2Cc2ccccc2Cl)c1 (centres unmarked)	22.9%
CCOCCCNCc1ccc(OCc2ccccc2Cl)cc1	-46.9%
Cc1nc2ncnn2c(C)c1Cc1cccc(C(F)(F)F)c1	-4.21%
COC(=O)N(NC(=O)C(O)(CCC(C)C)CCC(C)C)c1ccccc1	21.3%
O=C(OCn1nnc2ccccc2c1=O)c1cccc(S(=O)(=O)N2CCOCC2)c1	-17.1%
CCCCCC(=O)NNC(=O)c1c(O)c2ccccc2n(CC)c1=O	-13.5%
Cl.Clc1ccc(Nc2nc(N3CCOCC3)nc(N3CCOCC3)n2)cc1Cl	11.7%
CCC(C)(C)NC(=O)c1ccc(S(=O)(=O)N2CCCCCC2)cc1	-0.628%
O=C(/C=C/Nc1ccc(Oc2ccccc2Cl)cc1)c1ccco1	-1.79%
CC1(C(=O)N(c2ccccc2)C(C(=O)NC2CCCC2)c2ccccn2)CC(=O)N=C2C=CC=CN21 (centres unmarked)	11.5%
COc1ccc(C2C(C#N)=C(N)Oc3n[nH]c(C)c32)cc1CN1CCN(c2ccc(F)cc2)CC1 (centres unmarked)	-65.6%
CC(C)(Oc1ccc(Cl)cc1)C(=O)OCc1nc2ccsc2c(=O)[nH]1	-11.1%
O=C(CN1CCN(c2ccc(O)cc2)CC1)Nc1ccc2c(c1)OCCCO2	-5.96%
O=C(CSc1oc(-c2ccccc2)nc1S(=O)(=O)c1ccc(F)cc1)NCC1CCCO1 (centres unmarked)	-5.48%
CCOC(=O)c1ccc(-c2csc(NC(=O)CN3CCC(C)CC3)n2)cc1	-12.3%
O=[N+]([O-])c1cc(C(F)(F)F)ccc1N1CCCNCC1	-37.5%
O=c1cc(CNCCCO)c2ccccc2[nH]1	-0.517%
Cc1cccnc1NC(=S)NC(=O)c1cncc(Br)c1	14.7%
CCOC(=O)C1CCCN(C(=O)C2CCN(S(=O)(=O)c3cnc[nH]3)CC2)C1 (centres unmarked)	17%
Cc1cc2oc(C(=O)N(Cc3ccco3)C3CCS(=O)(=O)C3)cc(=O)c2cc1Cl (centres unmarked)	-42.3%
O=C(Nc1ccc(F)cc1)c1cc(-c2ccccc2)no1	14%

Compound	hERG current change (%, negative = inhibition) at 10uM
Cc1cc(S(=O)(=O)NCc2ccccc2)ccc1OCC(=O)Nc1cccc([N+](=O)[O-])c1	10.3%
COc1ccc(C(=O)Nc2ccccc2-c2nnn(CC(=O)N3CCOCC3)n2)cc1	4.59%
Cc1ccc(NC(=O)COC(=O)c2ccc(-n3cnnn3)cc2)c(Br)c1	-1.08%
O=S(=O)(c1ccc(Cl)cc1)N1CCN(CCc2ccccc2)CC1	-3.7%
c1ccc2c(c1)CNc1ccccc1O2	2.94%
COc1ccccc1N(C)S(=O)(=O)c1ccc(C(=O)OCC(=O)N2CCCCCC2)cc1	12%
N#CC1=C(N)OC2=C(C(=O)CCC2)C1c1ccc(OC(=O)N2CCOCC2)cc1 (centres unmarked)	1.64%
Cc1ccc(CN(C)C(=O)c2cc(Br)c(Br)s2)o1	7.75%
CC(C)N(CCO)C(=O)CCc1nnc(Cc2cccc(C(F)(F)F)c2)o1	17.9%
CCOC(=O)CSc1nnc(NC(=O)c2cccc(S(=O)(=O)N3CCCCC3)c2)s1	8.12%
COc1ccc(/C=C/c2nc3ccccc3n2C)cc1	-47%
Cc1ccc(C2CC(c3cccs3)=NN2C(=O)c2ccco2)o1 (centres unmarked)	-12.8%
COc1ccc(S(=O)(=O)N2CCc3ccccc32)cc1C(=O)Nc1cccnc1	4.44%
COc1cc(/C=N/N=C(\N)c2nonc2N)cc(OC)c1O	0.137%
CCN(CC)c1ccc(S(=O)(=O)N2CCOCC2)cc1NC(=O)COC(=O)COc1ccccc1C	12.7%
CCc1nc(Nc2ccccc2)c2nnn(Cc3ccccc3)c2n1	8.23%
COc1ccc(NC(=O)CSc2nnc(Cc3cccn3C)n2-c2ccc(F)cc2)cc1	-21.7%
CC(C)CC(NC(=O)OC(C)(C)C)C(=O)NCc1ccccc1 (centres unmarked)	11%
O=C(CN1C(=O)S/C(=C\c2ccccc2F)C1=O)NC1CCS(=O)(=O)C1 (centres unmarked)	13.3%
Cc1cc(C(=O)CN2C(=O)NC3(CCCC3)C2=O)c(C)n1-c1ccc2c(c1)OCO2	-28.5%
O=C(NCCNC(=O)c1ccco1)c1ccco1	21.4%
Cc1ccc(C(=O)CSc2ccc(-c3ccccc3)nn2)cc1	-3.65%

Compound	hERG current change (%, negative = inhibition) at 10uM
Cc1ccc(S(=O)(=O)c2nc(NCCN(C)C)sc2Cl)cc1	-69.5%
Cc1ccc(C)c(-n2c(CNC(=O)c3ccco3)nnc2SCC(=O)Nc2nccs2)c1	7.28%
O=S1(=O)CCC(NC(=S)Nc2ccccc2)C1 (centres unmarked)	3.9%
Cc1ccc2c(c1)C(c1ccccc1)NCC(=O)N2 (centres unmarked)	2.58%
COc1cccc(OC)c1NC(=O)Cn1nc(C)c2ccccc2c1=O	11.4%
Nc1ncnc(Oc2ccccc2F)c1[N+](=O)[O-]	8.42%
Cc1cc(C)nc(N2CCC(C(=O)NNC(=O)c3ccc(Cl)cc3)CC2)n1	4.45%
Cc1cccc(Nc2nnc(SCC(=O)Nc3cccc(S(=O)(=O)N4CCCCC4)c3)s2)c1	3.37%
CN(C)CCN(C(=O)c1cccc(N2C(=O)CCC2=O)c1)c1nc2ccc(Br)cc2s1.Cl	-48.7%
O=C(NCCCN1CCCC1=O)C(=O)NCC1OCCN1S(=O)(=O)c1ccc(Cl)cc1 (centres unmarked)	5.03%
Cc1ccc2c(C)nc(SC(C(=O)c3ccccc3)c3ccccc3)nc2c1 (centres unmarked)	4.47%
Cc1ccc(O)c(NC(=O)CN(C)S(=O)(=O)c2ccc(Cl)cc2)c1	-14.2%
N/C(Cc1cccc2ccccc12)=N\OC(=O)COc1ccccc1	4.75%
COc1ccccc1C(=O)Nc1ccnn1C1CCN(CCCc2ccccc2)CC1	-78.3%
COc1cccc(C2N(c3cccc(Cl)c3)C(=O)C3CCCN32)c1OC (centres unmarked)	-11.9%
Cc1cccc(NC(=O)c2cnc3sccn3c2=O)c1	2.35%
CC(C)CNC(=O)NC1(C(F)(F)F)Oc2ccccc2O1	14.6%
CCN1C(=O)[C@@H]2[C@@H](c3ccc(-c4ccc5c(c4)OCO5)cc3)N3CCCC[C@@]3(C(=O)OC)[C@@H]2C1=O.O=C(O)C(F)(F)F	21%
O=C(CCN1C(=O)c2ccccc2C1=O)NC(=S)Nc1cccc(Cl)c1	-0.748%
CC(C)(C)c1ccc(-c2nnc(SCC(=O)Nc3sc4c(c3C#N)CCCC4)o2)cc1	8.69%
